# Measured values reported in the supplement of paper PMC3334620.
# Over roughly 33,000 sequences, “E-score (-0.5 to 0.5)” has its median near -0.011; the highest 2% begin near 0.28. Some of the results follow.
# Molecular target: T1, Gcr1 (UniProt P07261)
# T1 sequence: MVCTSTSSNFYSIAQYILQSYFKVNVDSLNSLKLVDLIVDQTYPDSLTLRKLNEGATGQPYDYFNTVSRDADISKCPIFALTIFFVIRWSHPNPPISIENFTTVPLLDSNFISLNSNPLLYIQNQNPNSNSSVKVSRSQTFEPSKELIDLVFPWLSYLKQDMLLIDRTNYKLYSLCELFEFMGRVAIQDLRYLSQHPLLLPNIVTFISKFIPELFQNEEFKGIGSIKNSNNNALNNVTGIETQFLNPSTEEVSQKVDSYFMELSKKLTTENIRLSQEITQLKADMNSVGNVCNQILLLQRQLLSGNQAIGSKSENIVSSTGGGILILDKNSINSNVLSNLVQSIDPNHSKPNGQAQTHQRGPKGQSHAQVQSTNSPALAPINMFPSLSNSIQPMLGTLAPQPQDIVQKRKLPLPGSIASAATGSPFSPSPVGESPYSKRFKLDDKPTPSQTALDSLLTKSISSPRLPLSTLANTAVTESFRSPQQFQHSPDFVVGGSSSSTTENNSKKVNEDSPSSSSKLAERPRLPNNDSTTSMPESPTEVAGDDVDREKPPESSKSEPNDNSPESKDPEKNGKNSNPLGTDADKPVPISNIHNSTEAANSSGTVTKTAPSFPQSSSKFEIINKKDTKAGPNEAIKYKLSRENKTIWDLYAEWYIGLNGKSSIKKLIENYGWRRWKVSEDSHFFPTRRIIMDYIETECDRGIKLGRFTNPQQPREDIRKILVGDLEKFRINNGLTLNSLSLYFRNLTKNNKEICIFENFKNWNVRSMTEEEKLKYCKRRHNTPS
# Assay: PBM E-score (8-mer binding enrichment) (E-score (-0.5 to 0.5)); higher = stronger / more preferred TF binding; most listed sequences are background and not binding sites
# Settings: protein concentration: 100 nM; construct: GST-full length
# Procedure, shortened: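 For each ungapped eight-base word taken together with its reverse complement, the Universal PBM Analysis Suite assigned an E-score. Binding data came from GST-tagged yeast transcription factors, applied at about 100-200 nM, on universal all-10-mer Agilent arrays made double-stranded by primer extension. Fluorescent anti-GST marked bound protein, and scans were normalised with masliner.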
row,Sequence,PBM E-score
1,TCGCTGAA,-0.126
2,GGGTATAC,-0.133
3,CACCTTCG,-0.164
4,CGAATTAG,0.0525
5,GCGGACTA,-0.12
6,AGCGGGCG,0.0749
7,CAGCCATC,-0.139
8,ATACTACG,0.0226
9,CTTATTGA,0.0361
10,GACCCAGC,-0.215
11,CTATCCGC,-0.207
12,ACCACTTA,0.117
13,GCAGGAGA,0.00708
14,CAGGTCGG,-0.0991
15,GCAAGGAA,-0.0181
16,AGGCTTAG,-0.158
17,AATTAAAC,0.0787
18,CACGAATA,0.0879
19,CAAAGTAC,-0.0222
20,AGATTCTA,0.141
21,GCGTCTAC,0.268
22,ACCCGTAT,0.0462

row,Sequence,PBM E-score
1,CTCGGTAA,-0.22
2,AGATATCT,-0.288
3,AAGAGACT,0.0261
4,CCATTCGG,0.117
5,AACAACAC,0.00299
6,AAGCTTAT,-0.213
7,ACTAGGGA,0.0634
8,ACTACCAT,0.0603
9,AGATGGGC,0.155
10,TAGTAATA,0.221
11,ACGCCGAA,-0.0165
12,ACAAACGC,-0.0152
13,CGAACCCG,0.0105
14,CAATAGGA,0.13
15,AACATTAC,-0.0239
16,CGAAACCA,0.0403
17,ACCGATAT,0.0466
18,CATCAATA,0.185
19,CGTACGTA,0.0529
20,AGCGCAGA,0.0239
21,CGCGAAAC,-0.0979
22,AAACTATT,0.0178

row,Sequence,PBM E-score
1,GATCCGGC,-0.0058
2,ACGGGCCT,-0.107
3,CAGCCGAA,0.1
4,CACGGGAG,-0.0457
5,CGCCGGTA,0.106
6,AATATCGA,0.0225
7,GTTAAGTA,0.111
8,CGCATCCC,0.319
9,CTCATATA,-0.0578
10,ATGAATCC,0.0178
11,CTGATGCA,-0.079
12,AAAACTAA,0.13
13,ATGGTGAA,-0.156
14,GCATTCCA,0.16
15,CCAGTGCG,0.0274
16,CATGTTGC,0.143
17,ATTCCGCC,-0.0712
18,CAAACAGA,-0.0985
19,CGGCTCCA,0.0712
20,ACCAATTC,0.0991
21,CGATGACC,-0.117
22,CGTCCTGC,-0.145

row,Sequence,PBM E-score
1,ACAGCGAT,-0.086
2,AGTCGCGC,-0.0379
3,CCACTCGG,0.0661
4,TATACGCA,0.285
5,CCGATGAC,-0.0977
6,ATCTTTAG,0.139
7,ACAAGCGT,-0.174
8,AATAAGGT,0.155
9,ATGATAAG,0.112
10,ATCTAGGA,0.0629
11,CGATGACG,-0.106
12,ACTCAGTC,-0.0958
13,GCCAGTCA,-0.083
14,CACATCCG,-0.148
15,GAATCCCC,0.0893
16,GCAAGAGC,-0.173
17,AGTGAATC,-0.0635
18,AAGGACCT,0.00148
19,CGGTTAAG,-0.0505
20,CGGTACAG,0.0373
